Test results from PubChem BioAssay AID485294 (National Center for Advancing Translational Sciences (NCATS), 2010).
“And” between values parts separate entries of the source, which are not always exact repeats. Identical values can stand only once. About 150 (0.041%) of roughly 370,000 compounds were called active. Inconclusive results, whose numbers are uncertain, are shown with a selection of clear calls. Calls follow the shape of the dose curve; as a rule, active = well fitted inhibition curve with a large enough effect; inconclusive = small, poorly fitted or top-dose-only effect; inactive = flat fitted curve, though single readings scatter. Potencies beside an inconclusive call are fits to weak or partial responses and may not hold up.
Also: nearly all actives have a fitted effect of over 25% in size.
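For activity change, negative = inhibition in this document: 0% = no-compound wells and -100% = no-enzyme wells.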
Potency is read from the fitted curve at half-maximal effect; tags tell the direction and shape of the fitted curve.

Each compound was assayed against Beta-lactamase (Escherichia coli (strain K12)) (UniProt P00811) (assay: qHTS Inhibitors of AmpC Beta-Lactamase (assay with detergent)). Conditions: AmpC hydrolysis of nitrocefin, absorbance 480 nm, 0.01% Triton; activity change, negative = inhibition: at 114 µM (top of the series).
Sequence of UniProt P00811 (P00811 whole entry, looked up): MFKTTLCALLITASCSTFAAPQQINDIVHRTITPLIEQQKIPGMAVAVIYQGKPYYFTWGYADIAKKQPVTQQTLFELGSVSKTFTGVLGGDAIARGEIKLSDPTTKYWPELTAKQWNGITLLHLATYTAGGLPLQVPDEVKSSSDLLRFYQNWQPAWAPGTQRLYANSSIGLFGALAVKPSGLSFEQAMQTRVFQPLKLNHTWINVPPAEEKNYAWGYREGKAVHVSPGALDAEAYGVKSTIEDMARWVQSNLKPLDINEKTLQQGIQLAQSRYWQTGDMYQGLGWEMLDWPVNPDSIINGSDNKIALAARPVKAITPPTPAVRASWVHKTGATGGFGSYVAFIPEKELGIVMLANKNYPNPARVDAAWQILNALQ
Procedure, shortened: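 20 mM phosphate pH 7.0 + 0.01% (detergent screen) or 0.0001% Triton X-100; 5.3 nM AmpC reagent; cpd preinc 15 min RT; nitrocefin (800 uM stock) to start; A480 q20 s × 4 min; Activity was normalised to no-enzyme and no-compound control wells.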
`Cc1ccc(C(=O)NCCC2=CCCCC2)cc1S(=O)(=O)N1CCCCC1` was tested, and the “activity change, negative = inhibition” value was inactive: -2.52%.
`COc1ccccc1NC(=O)CNC(=O)c1ccc(Br)o1` was tested, and the Potency was inconclusive: 0.316 µM [inhibitor, full curve, poor fit].
With `COC(=O)/C=C/c1ccc(-n2ccnc2)cc1` the “activity change, negative = inhibition” value was inactive: -7.91%.
With `COc1cc(/C=C/C(=O)N2CCC=CC2=O)cc(OC)c1OC` the Potency was inconclusive: 3.98 µM [inhibitor, full curve].
For `COc1cccc(C(=O)CN(C(=O)c2ccc(Cl)cc2Cl)N2C(=O)c3ccccc3C2=O)c1`, the Potency was inconclusive: 7.94 µM [inhibitor, full curve, poor fit].
For `COc1ccc(-c2cc(=O)n(-c3nc4ccccc4[nH]3)[nH]2)cc1`, the Potency was inconclusive: 3.16 µM [inhibitor, full curve].
In the case of `Cc1c(C(=O)N2CC(C)OC(C)C2)oc2ccccc12` (stereo not given), the Potency is reported as inconclusive: 0.708 µM [inhibitor, full curve].
In the case of `CCCNC(=O)c1cc(S(=O)(=O)N2CCCCC2)ccc1N1CCOCC1`, the Potency is reported as inconclusive: 1.41 µM [inhibitor, full curve, poor fit].
With `Cc1cccc(-c2noc(CCC(=O)NCC3CCCO3)n2)c1` (stereo not given) the Potency was inconclusive: 4.47 µM [inhibitor, full curve, poor fit].
With `CCc1noc(C)c1C(=O)Nc1ccc(F)c(F)c1` the Potency was inconclusive: 35.5 µM [inhibitor, partial curve].
For `C#CCOCCOCCOCCNc1nc(N2CCN(C(=O)[C@H]([C@@H](C)O)n3cc(CCCCN)nn3)CC2)nc(N2CCN(C(=O)[C@H](C)n3cc(CCCN=C(N)N)nn3)CC2)n1`, the Potency was inconclusive: 44.7 µM [inhibitor, partial curve].
With `Cc1cc(C)nc(SCC(=O)NCC2COc3ccccc3O2)n1` (stereo not given) the Potency was inconclusive: 0.631 µM [inhibitor, full curve, poor fit].
For `Cc1[nH]c(=O)[nH]c(=O)c1S(=O)(=O)N1CCOCC1`, the Potency was inconclusive: 56.2 µM [inhibitor, partial curve, poor fit].
With `O=C1COc2ccc(S(=O)(=O)Nc3cccc(Cl)c3)cc2N1` the Potency was inconclusive: 4.47 µM [inhibitor, single point].
`COc1cccc2[nH]c3c(N4CCCCC4)ncnc3c12` was tested, and the Potency was inconclusive: 79.4 µM [inhibitor, single point].
With `O=C(NNC(=O)C1CCCCC1)c1ccncc1` the Potency was inconclusive: 1.12 µM [inhibitor, full curve, poor fit].
`CCCCn1c(N)c(N(CCOC)C(=O)c2cccc(S(=O)(=O)N3CCCCCC3)c2)c(=O)[nH]c1=O` was tested, and the Potency was inconclusive: 50.1 µM [inhibitor, full curve, poor fit].
For `CC(C)Oc1ccc(CNC(=O)c2ccc(NC(=O)N3CCSc4ncccc43)cc2)cc1`, the “activity change, negative = inhibition” value was inactive: -1.53%.
`COc1ccc(NC(=O)c2cc(-c3ccccc3Cl)no2)cc1` was tested, and the “activity change, negative = inhibition” value was inactive: -8.55%.
For `CCOc1ccc(NC(=O)CN(C)C(=O)c2cccnc2Sc2ccc(C)c(C)c2)cc1OCC`, the Potency was inconclusive: 0.631 µM [inhibitor, full curve, poor fit].
With `Cn1nccc1NC(=O)CSCC(=O)O` the Potency was inconclusive: 2.24 µM [inhibitor, single point].
With `CCCCOC(=O)c1ccc(NC(C)=O)cc1` the Potency was inconclusive: 89.1 µM [inhibitor, single point].
`C=CCOC(=O)C1=C(C)NC(=O)NC1C1CC=CCC1` (stereo not given) was tested, and the Potency was inconclusive: 7.08 µM [inhibitor, full curve, poor fit].
`Cc1cccc(CN2CCC(CNC(=O)C3CCCN(S(=O)(=O)c4cnc[nH]4)C3)CC2)c1` (stereo not given) was tested, and the Potency was inconclusive: 5.62 µM [inhibitor, full curve, poor fit].
With `CC(=O)c1c(COC(=O)c2ccccc2Cl)nc2ccccc2[n+]1[O-]` the Potency was inconclusive: 1.78 µM [inhibitor, full curve, poor fit].
In the case of `O=C(Nc1cccnc1)c1cc(-c2ccc3c(c2)OCO3)on1`, the Potency is reported as inconclusive: 15.8 µM [inhibitor, full curve].
`Cc1[nH]c2c(C)cccc2c1CCNS(=O)(=O)c1cccc([N+](=O)[O-])c1` was tested, and the Potency was inconclusive: 17.8 µM [inhibitor, partial curve, poor fit].
`Nc1ccc(S(N)(=O)=O)cc1N` was tested, and the Potency was inconclusive: 35.5 µM [inhibitor, full curve].
With `COc1ccc(-c2nc3sc(CCNC(=O)c4cccc(C(F)(F)F)c4)c(C)n3n2)cc1` the “activity change, negative = inhibition” value was inactive: 0.69%.
For `COc1ccc(-c2cc(=O)c3cc(OC)c(OC)cc3[nH]2)cc1`, the Potency was inconclusive: 89.1 µM [inhibitor, partial curve, poor fit].
In the case of `CC(=O)Nc1c(C)nn(-c2ccc(C)c(C)c2)c1C`, the “activity change, negative = inhibition” value is reported as inactive: 4.05%.
In the case of `CCOCCCNC(=S)N1CCCN(c2nc3c(C)c(C)ccc3cc2C#N)CC1`, the “activity change, negative = inhibition” value is reported as inactive: -1.04%.
`CCOc1ccc2c(c1)n(CO)c(=S)n2CO` was tested, and the Potency was inconclusive: 1.78 µM [inhibitor, full curve].
In the case of `Cc1c(Cl)cccc1NC(=O)CCN1CCOCC1`, the Potency is reported as inconclusive: 0.224 µM [inhibitor, full curve, poor fit].
In the case of `CC(=O)c1c(C)[nH]c(C(=O)NCC2CCCCC2)c1C`, the “activity change, negative = inhibition” value is reported as inactive: -10.1%.
`Cc1ccc2nc(SCC(=O)Nc3ccccc3F)nc(=O)n2c1` was tested, and the Potency was inconclusive: 100 µM [inhibitor, partial curve, poor fit].
`CC(C)N(C)CCOC(=O)c1ccccc1Cl` was tested, and the Potency was inconclusive: 3.98 µM [inhibitor, full curve, poor fit].
With `O=C(NCCCn1ccnc1)c1cn(-c2ccccc2)nc1-c1ccc(F)cc1` the Potency was inconclusive: 0.631 µM [inhibitor, full curve, poor fit].
For `COc1ccc(NC(=O)CSc2nc(N)c3cc4c(nc3n2)CCCC4)c(OC)c1`, the “activity change, negative = inhibition” value was inactive: 1.45%.
For `CCCC(C)C(=O)Nc1nc(C)c(-c2csc(Nc3cc(Cl)ccc3C)n2)s1` (stereo not given), the Potency was inconclusive: 70.8 µM [inhibitor, single point].
In the case of `COc1ccc(C2=NS(=O)(=O)N(C)C(C(=O)N3CCC4(CC3)OCCO4)=C2)cc1OC`, the Potency is reported as inconclusive: 4.47 µM [inhibitor, full curve, poor fit].
`CC(=O)C1CCCN(C(=O)c2ccc3oc(CCc4ccccc4)nc3c2)C1` (stereo not given) was tested, and the Potency was inconclusive: 0.631 µM [inhibitor, full curve, poor fit].
For `CCOCCCNC(=O)C1CCC(CNS(=O)(=O)c2cccc3nsnc23)CC1` (stereo not given), the Potency was inconclusive: 1.12 µM [inhibitor, full curve, poor fit].
`C/C(=N\NC(=O)COc1cccc(C)c1)c1ccc2ccccc2c1O` was tested, and the Potency was inconclusive: 5.62 µM [inhibitor, full curve, poor fit].
For `Cc1ccc(NC(=O)CN2CCCN(Cc3ccccc3Cl)S2(=O)=O)c(C)c1`, the “activity change, negative = inhibition” value was inactive: 0.401%.
For `O=c1c2ccccc2nc2n1CCS2`, the Potency was inconclusive: 0.631 µM [inhibitor, full curve].
`O=C(Cn1cnc2sc(-c3ccccc3)cc2c1=O)NCc1ccccc1` was tested, and the Potency was inconclusive: 3.16 µM [inhibitor, full curve, poor fit].
With `CS(=O)(=O)c1ccc2nc(NC(=O)Nc3cccc(Cl)c3)sc2c1` the Potency was inconclusive: 10 µM [inhibitor, full curve, poor fit].
In the case of `CCOC(=O)C1(Cc2ccc(Cl)cc2)CCN(C(C)Cc2ccc(O)c(OC)c2)CC1` (stereo not given), the Potency is reported as inconclusive: 0.631 µM [inhibitor, full curve, poor fit].
`O=C(COC(=O)COc1ccc2ccccc2c1)Nc1cc(C(F)(F)F)ccc1N1CCOCC1` was tested, and the Potency was inconclusive: 14.1 µM [inhibitor, partial curve, poor fit].
`Cc1cccc(-c2noc(CNC(=O)Nc3ccc(F)cc3)n2)c1` was tested, and the Potency was inconclusive: 0.631 µM [inhibitor, full curve, poor fit].
For `Cc1n[nH]c(C)c1Sc1ccccc1N=Cc1cc(Cl)cc([N+](=O)[O-])c1O`, the “activity change, negative = inhibition” value was inactive: 1.08%.
For `CCOc1ccccc1NC(=O)Cn1c(=O)n(CCCC(=O)NCCOC)c(=O)c2cc(OC)c(OC)cc21`, the Potency was inconclusive: 5.01 µM [inhibitor, full curve, poor fit].
In the case of `Cc1ccc(SCc2ccc(C(=O)Nc3nccs3)o2)cc1`, the “activity change, negative = inhibition” value is reported as inactive: 3.45%.
With `O=C(CSc1nnc(-c2cccnc2)n1C1CCCCC1)NC1CCCCC1` the Potency was inconclusive: 5.01 µM [inhibitor, full curve, poor fit].
With `O=C(c1ccc(Cl)c(Cl)c1)N1CCC(=O)N(C(COCc2ccccc2)Cc2ccccc2)CC1` (stereo not given) the Potency was inconclusive: 28.2 µM [inhibitor, full curve, poor fit].
In the case of `CCN1C(=O)C(=O)N(CC(=O)NC(C)CCc2ccccc2)C1=O` (stereo not given), the Potency is reported as inconclusive: 100 µM [inhibitor, partial curve, poor fit].
`O=C(COC(=O)C1CCC(=O)N1)Nc1ccc(Br)cc1` (stereo not given) was tested, and the Potency was inconclusive: 100 µM [inhibitor, single point].
`Cc1ccc(N2C(=O)NC(=O)/C(=C/c3cnc(-c4ccccc4)nc3)C2=O)cc1C` was tested, and the “activity change, negative = inhibition” value was inactive: -18%.
With `COc1cc(C(C)=O)ccc1OCC(=O)Nc1cc(Cl)ccc1-n1cncn1` the “activity change, negative = inhibition” value was inactive: 0%.
`CC(C)COCC1CC2(CC(C)(c3csc(N)n3)OC2=O)C(=O)O1` (stereo not given) was tested, and the “activity change, negative = inhibition” value was inactive: -12.6%.
`CC1CCN(C(=O)CN2C(=O)C(=O)N(C)C2=O)c2ccccc2S1` (stereo not given) was tested, and the “activity change, negative = inhibition” value was inactive: 6.51%.
With `CC(=O)Nc1ccc(-n2cnnn2)cc1` the Potency was inconclusive: 35.5 µM [inhibitor, full curve, poor fit].
For `CN(C(=O)COC(=O)c1cc(S(=O)(=O)N2CCOCC2)ccc1F)C1CCS(=O)(=O)C1` (stereo not given), the Potency was inconclusive: 25.1 µM [inhibitor, full curve].
In the case of `C=C[C@H]1CN2CC[C@H]1C[C@@H]2[C@@H](O)c1ccnc2ccc(OC)cc12`, the Potency is reported as inconclusive: 5.01 µM [inhibitor, full curve] and inconclusive: 8.91 µM [inhibitor, full curve].
